Laboratory results from US7772236B2, “Substituted pyrazoles” (Ortho McNeil Pharmaceutical, Inc., priority 2000, dated 2010).

Target: Recombinant human cathepsin S (CatS) (Homo sapiens, UniProt P25774)
Experiment: biochemical

Structure (SMILES) | IC50
COc1ccccc1N1CCN(C(=O)CCCn2nc(-c3ccc(Cl)cc3)c3c2CCN(C(C)=O)C3)CC1 [Example 120, 4-[5-Acetyl-3-(4-chloro-phenyl)-4,5,6,7-tetrahydro-pyrazolo[4,3-c]pyridin-1-yl]-1-[4-(2-methoxy-phenyl)-piperazin-1-yl]-butan-1-one] | 12 µM
CCN1CCCC1CNC(CN1CCN(c2ccccc2C)CC1)Cn1nc(-c2ccc(Cl)cc2)c2c1CCN(C(C)=O)C2 (centres unmarked) [Example 214, 1-{3-(4-Chloro-phenyl)-1-[2-[(1-ethyl-pyrrolidin-2-ylmethyl)-amino]-3-(4-o-tolyl-piperazin-1-yl)-propyl]-1,4,6,7-tetrahydro-pyrazolo[4,3-c]pyridin-5-yl}-ethanone] | 1.9 µM
N#Cc1ccccc1N1CCN(CC(O)Cn2nc(-c3ccc(Cl)cc3)c3c2CCC3)CC1 (centres unmarked) [Example 159, 2-(4-{3-[3-(4-Chloro-phenyl)-5,6-dihydro-4H-cyclopentapyrazol-1-yl]-2-hydroxy-propyl}-piperazin-1-yl)-benzonitrile] | 6.2 µM
COc1ccccc1N1CCN(CC(O)Cn2nc(-c3ccc(Cl)cc3)c3c2CCN(C(C)=O)C3)CC1 (centres unmarked) [Example 103, 1-(3-(4-Chloro-phenyl)-1-{2-hydroxy-3-[4-(2-methoxy-phenyl)-piperazin-1-yl]-propyl}-1,4,6,7-tetrahydro-pyrazolo[4,3-c]pyridin-5-yl)-ethanone] | 2.1 µM
CC(=O)N1CCc2c(c(-c3ccc(Cl)cc3)nn2CC(O)CN2CCN(C3c4ccccc4-c4ccccc43)CC2)C1 (centres unmarked) [Example 114, 1-(3-(4-Chloro-phenyl)-1-{3-[4-(9H-fluoren-9-yl)-piperazin-1-yl]-2-hydroxy-propyl}-1,4,6,7-tetrahydro-pyrazolo[4,3-c]pyridin-5-yl)-etha none] | 1.1 µM
COc1ccccc1N1CCN(CC(O)Cn2nc(-c3ccc(Cl)cc3)c3c2CCN(C(N)=O)C3)CC1 (centres unmarked) [Example 137, 3-(4-Chloro-phenyl)-1-{2-hydroxy-3-[4-(2-methoxy-phenyl)-piperazin-1-yl]-propyl}-1,4,6,7-tetrahydro-pyrazolo[4,3-c]pyridine-5-carboxylic acid amide] | 0.98 µM

These reach a lower IC50. Values come first.

IC50 | Structure (SMILES)
0.71 µM | COc1ccccc1N1CCN(CC(O)Cn2nc(-c3ccc(Cl)c(Cl)c3)c3c2CCN(C(C)=O)C3)CC1 (centres unmarked) [Example 139, 1-(3-(3,4-Dichloro-phenyl)-1-{2-hydroxy-3-[4-(2-methoxy-phenyl)-piperazin-1-yl]-propyl}-1,4,6,7-tetrahydro-pyrazolo[4,3-c]pyridin-5-yl)-ethanone]
0.48 µM | CS(=O)(=O)N1CCc2c(c(-c3ccc(C(F)(F)F)cc3)nn2CC(O)CN2CCN(c3c(Cl)cccc3CN3CCOCC3)CC2)C1 (centres unmarked) [Example 296, 1-[4-(2-Chloro-6-morpholin-4-ylmethyl-phenyl)-piperazin-1-yl]-3-[5-methanesulfonyl-3-(4-trifluoromethyl-phenyl)-4,5,6,7-tetrahydro-pyrazolo[4,3-c]pyridin-1-yl]-propan-2-ol]
0.47 µM | CC(=O)N1CCc2c(c(-c3ccc(C(F)(F)F)c(Cl)c3)nn2CC(O)CN2CCN(c3ccccc3C#N)CC2)C1 (centres unmarked) [Example 249, 2-(4-{3-[5-Acetyl-3-(3-chloro-4-trifluoromethyl-phenyl)-4,5,6,7-tetrahydro-pyrazolo[4,3-c]pyridin-1-yl]-2-hydroxy-propyl}-piperazin-1-yl)-benzonitrile]
0.24 µM | CC(=O)N1CCc2c(c(-c3ccc(C)c(Cl)c3)nn2CC(O)CN2CCN(c3ccccc3C#N)CC2)C1 (centres unmarked) [Example 260, 2-(4-{3-[5-Acetyl-3-(3-chloro-4-methyl-phenyl)-4,5,6,7-tetrahydro-pyrazolo[4,3-c]pyridin-1-yl]-2-hydroxy-propyl}-piperazin-1-yl)-benzonitrile]
0.15 µM | CS(=O)(=O)N1CCc2c(c(-c3ccc(C(F)(F)F)cc3)nn2CC(O)CN2CCN(c3c(C#N)cccc3C#N)CC2)C1 (centres unmarked) [Example 289, 2-(4-{2-Hydroxy-3-[5-methanesulfonyl-3-(4-trifluoromethyl-phenyl)-4,5,6,7-tetrahydro-pyrazolo[4,3-c]pyridin-1-yl]-propyl}-piperazin-1-yl)-isophthalonitrile]
